Test results as given in PubChem BioAssay AID1468 (National Center for Advancing Translational Sciences (NCATS), 2008).
Out of some 280,000 compounds screened, about 1,100 (0.39%) were called active. This list was built around the results that the source calls inconclusive (neither active nor inactive); the mix of calls is not that of the screen. The call rests on the fitted dose curve; in most records, active means well fitted inhibition curve with a large enough effect; inconclusive means small, poorly fitted or top-dose-only effect, or effect the other way; inactive means flat fitted curve, though single readings scatter. Potencies of inconclusive entries are left out as doubtful fits.

Biological target: Microtubule-associated protein tau (Homo sapiens) (UniProt P10636)
Test: qHTS for Inhibitors of Tau Fibril Formation, Fluorescence Polarization; further: nearly all actives have a fitted effect of over 55% in size
Details: K18 P301L tau heparin fibrillization, Alexa594 FP, 6 h; series mostly up to 57.7 µM; activity, negative = inhibition: at the top concentration
How it was run: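 Steps: dispense K18 P301L tau (15 uM plus 0.24 uM Alexa 594 tracer, final) in pH 7 sodium acetate; add compound; add heparin (20 uM final); incubate 6 hr, 37 C; add ThT (30 uM final); after 1 hr ambient, read FP.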
On the % scale 0 is the no-effect control and ±100 the full control effect; potency means the concentration at half of the fitted maximal effect; tags describe the fitted curve by direction and shape.

Sequence of UniProt P10636 (P10636 whole entry, looked up): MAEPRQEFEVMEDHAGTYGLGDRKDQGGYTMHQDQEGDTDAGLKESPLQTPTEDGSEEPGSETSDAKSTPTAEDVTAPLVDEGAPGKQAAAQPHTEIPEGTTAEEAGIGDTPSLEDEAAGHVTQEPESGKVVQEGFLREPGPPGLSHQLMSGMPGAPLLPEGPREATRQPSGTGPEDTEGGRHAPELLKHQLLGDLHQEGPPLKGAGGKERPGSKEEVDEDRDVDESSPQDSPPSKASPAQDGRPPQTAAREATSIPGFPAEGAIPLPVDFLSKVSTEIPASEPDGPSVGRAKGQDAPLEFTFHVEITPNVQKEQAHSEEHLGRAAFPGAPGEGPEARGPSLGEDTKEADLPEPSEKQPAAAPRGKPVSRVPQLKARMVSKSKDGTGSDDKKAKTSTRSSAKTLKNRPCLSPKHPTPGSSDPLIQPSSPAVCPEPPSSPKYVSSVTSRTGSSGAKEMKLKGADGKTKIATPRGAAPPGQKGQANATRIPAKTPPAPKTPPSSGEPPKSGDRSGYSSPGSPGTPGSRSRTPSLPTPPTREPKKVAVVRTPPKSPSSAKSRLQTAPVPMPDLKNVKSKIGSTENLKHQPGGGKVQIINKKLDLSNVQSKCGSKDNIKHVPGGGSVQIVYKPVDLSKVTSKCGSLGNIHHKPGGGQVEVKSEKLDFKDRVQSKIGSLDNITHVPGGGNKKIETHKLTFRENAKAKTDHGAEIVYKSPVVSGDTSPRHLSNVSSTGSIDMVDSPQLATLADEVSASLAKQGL

Structure (SMILES) | Potency | activity, negative = inhibition
COc1cc(/C=C(\C#N)c2nc3ccccc3[nH]2)cc(OC)c1O | inconclusive [activator, partial curve, poor fit] | –
O=C(COC(=O)c1cccc(Br)c1)NCCC1=CCCCC1 | – | inactive: 3.87%
CCOC(=O)c1[nH]c(C)c(CCC(=O)Nc2cc(C)ccc2OC)c1C | – | inactive: -8.8%
CCc1ccccc1NC(=O)c1cnc(N2CCCCC2)c2ccccc12 | – | inactive: 1.23%
COc1ccc(-c2c3c(=O)n(C)c(=O)n(C)c3c3n2-c2ccccc2NC3c2ccco2)cc1 (centres undefined) | – | inactive: 5.27%
O=C(NC(=S)Nc1ccc(S(=O)(=O)N2CCCCC2)cc1)c1ccccc1 | inconclusive [inhibitor, single point] | –
O=C(CN1C(=O)/C(=C\c2ccccc2F)SC1=S)Nc1nc2ccccc2s1 | inconclusive [inhibitor, partial curve] | –
C[C@H](NC(N)=O)C(=O)Nc1ccc2c(c1)OCO2 | inconclusive [activator, single point] | –
COc1ccc(OC)c(/C=N/NC(=O)CC(=O)NCc2ccccc2)c1 | – | inactive: -3.15%
CCCc1ccc(-c2cc(C(=O)N/N=C/c3ccc([N+](=O)[O-])o3)c3ccccc3n2)cc1 | inconclusive [activator, partial curve] | –
Cc1ccc(C(=O)NCc2ccc3c(c2)OCO3)cc1S(=O)(=O)N1CCOCC1 | inconclusive [inhibitor, single point] | –
O=C(CSCC(=O)OCC(=O)c1ccc(Br)cc1)Nc1ccc(Br)cc1 | inconclusive [inhibitor, partial curve] | –
C/C=C/c1ccc2oc(-c3ccc(O)cc3)c(C)c2c1 | inconclusive [inhibitor, single point] | –
CCOC(=O)c1cc2c(=O)n3ccccc3nc2n(Cc2ccco2)c1=NC(=O)c1cccc(OC)c1 | – | inactive: 6.61%
COc1ccc(Cn2ccn(Cc3cccc(OC)c3)c(=O)c2=O)cc1 | inconclusive [inhibitor, partial curve] | –
COc1ccc(CN(C(=O)CSc2nnc(-c3ccc(OC)c(OC)c3)o2)c2ccc(F)cc2)cc1 | inconclusive [activator, single point] | –
CCOc1ccccc1OCCCn1c(-c2ccc(Cl)cc2)nc2ccccc2c1=O | inconclusive [inhibitor, partial curve, poor fit] | –
COc1ccc(CCn2c(NN=C(C)C)nc3c2c(=O)[nH]c(=O)n3C)cc1 | inconclusive [inhibitor, partial curve] | –
CN(C)c1ccc(N2CN=C3SCC(=O)N3C2)cc1 | active: 12.6 µM | –
O=C(NCc1ccc(Cl)cc1)C(=O)Nc1nccs1 | – | inactive: -0.815%
COc1nc(N/N=C/c2ccc(C)cc2)nc(N2CCCCC2)n1 | inconclusive [inhibitor, single point] | –
CCOc1cc(NS(=O)(=O)c2ccc(OC)cc2)c(OCC)cc1NC(=O)c1ccco1 | inconclusive [activator, single point] | –
COc1cc2c(cc1NC(=O)CSc1nc3ccccc3[nH]1)oc1ccccc12 | inconclusive [inhibitor, single point] | –

Structure (SMILES) | Potency | activity, negative = inhibition
O=C1OC(NC(=O)c2ccccc2)C(n2cc(CO)nn2)=C1Cl (centres undefined) | inconclusive [inhibitor, partial curve] | –
CCOC(=O)c1cccc(NC(=O)CCn2c(-c3ccc(F)cc3)cc(C(=O)OCC)c2C)c1 | inconclusive [inhibitor, full curve, poor fit] | –
CCN(CC)S(=O)(=O)c1ccc(C(=O)Nc2cccc(C)c2)cc1 | inconclusive [inhibitor, partial curve, poor fit] | –
COC(=O)c1c(NC(=O)CCCOc2cccc(C)c2)sc2c1C(C(=O)OC)CC2 (centres undefined) | inconclusive [inhibitor, full curve] | –
Cc1c(NC(=O)c2cc(-c3ccco3)on2)c(=O)n(-c2ccccc2)n1C | – | inactive: -10.1%
CC(C)(C)OC(=O)NCc1ccc(NC(=O)c2nc[nH]c2C(=O)N[C@@H](Cc2ccccc2)C(=O)OC(C)(C)C)cc1 | active: 8.91 µM | –
Cc1ccc(-n2ncc(C(=O)NCc3ccco3)c2C2CCN(C(=O)OC(C)(C)C)CC2)c(C)c1 | – | inactive: -1.93%
COC(=O)c1cc(=O)nc2sc3ccccc3n12 | inconclusive [inhibitor, single point] | –
Cc1ccccc1N1C(S)=C(C#N)C(=O)NC1c1cccs1 (centres undefined) | inconclusive [inhibitor, single point] | –
Cc1ccc(-n2ncc3c(NC4CCCCCC4)ncnc32)cc1Cl | inconclusive [inhibitor, single point] | –
CC(=O)c1ccc(N2C(=O)N(CC(=O)c3ccc(F)cc3)c3ccccc3S2(=O)=O)cc1 | inconclusive [inhibitor, full curve, poor fit] | –
COc1ccc(S(=O)(=O)n2ccc(-c3cnc(-c4ccccc4)s3)n2)cc1 | inconclusive [inhibitor, full curve, poor fit] | –
CCSC1=NC(C)(C)C=C(/C=C/c2ccc(Cl)cc2Cl)N1 | – | inactive: -6.17%
O=[N+]([O-])c1ccc(-c2nc3ccc([N+](=O)[O-])cc3[nH]2)cc1 | inconclusive [activator, single point] | –
CCCNC(=S)Nc1ccc2nc(-c3ccccn3)c(-c3ccccn3)nc2c1 | – | inactive: -0.13%
O=C(Nc1nc2cc3c(cc2s1)OCCO3)c1ccc(N2C(=O)CCC2=O)cc1 | – | inactive: -11.9%
O=C1NC(=O)/C(=C/c2ccc(N3CCOCC3)o2)N1 | – | inactive: -14.4%
CC1(C)CC2(C)OC(=N)C1(C#N)C2(C#N)C#N (centres undefined) | inconclusive [inhibitor, partial curve] | –
COc1ccccc1OCC(=O)Nc1sc2c(c1C(=O)NCC1CCCO1)CCC2 (centres undefined) | inconclusive [inhibitor, partial curve, poor fit] | –
COc1ccc(N2C(S)=C(C#N)C(=O)NC23CCCCC3)cc1 | inconclusive [inhibitor, partial curve] | –
CCCc1cc(-c2n[nH]c(=S)n2C(C)c2ccccc2)cs1 (centres undefined) | – | inactive: 4.18%
Cn1nc(C(=O)Nc2ccc(F)c(Cl)c2)c2c1-c1ccccc1S(=O)(=O)C2 | – | inactive: -3.98%
COc1cc(C2c3sc(=O)[nH]c3SC3C4CCC(C4)C23)ccc1O (centres undefined) | – | inactive: -0.42%

Structure (SMILES) | Potency | activity, negative = inhibition
CC(/C=N/n1c(-c2ccco2)n[nH]c1=S)=C\c1ccccc1 | – | inactive: -12.4%
COc1ccc(C2SCCN2C(=S)Nc2cccc(Cl)c2)cc1 (centres undefined) | inconclusive [inhibitor, single point] | –
COc1ccc(N2CCN(C(=O)c3ccc(Cn4c(=S)[nH]c5ccc(N6CCOCC6)cc5c4=O)cc3)CC2)cc1 | inconclusive [activator, full curve, poor fit] | –
CN(C)CCCNC(=O)c1ccc(-c2nc(-c3ccc(Cl)cc3)cs2)cc1 | inconclusive [inhibitor, single point] | –
CCc1ccccc1NC(=O)c1ccc2c(c1)N(Cc1cccc(Cl)c1)C(=O)c1ccccc1S2(=O)=O | inconclusive [inhibitor, partial curve] | –
O=C(Nc1ccc(-c2nnc(-c3ccco3)o2)cc1)C(c1ccccc1)c1ccccc1 | inconclusive [inhibitor, partial curve] | –
CCOC(=O)Nc1ccc(NCc2ccc(F)cc2)nc1N | inconclusive [inhibitor, partial curve] | –
CCN1C(=O)C(CC(=O)Nc2ccc(Br)cc2)N(CCCc2ccccc2)C1=S (centres undefined) | inconclusive [inhibitor, partial curve] | –
c1ccc2c(c1)OCCOCCOCCOCCOCCOc1ccccc1OCCOCCOCCO2 | – | inactive: 1.99%
S=C(Nc1cccnc1)NC1CCCC1 | – | inactive: 6.14%
COc1ccc(NC(=O)c2cc3c(=O)n(Cc4ccco4)ccc3nc2C)cc1 | – | inactive: 3.28%
COc1ccc(Nc2ncnc3sc(-c4ccccc4)cc23)c(OC)c1 | inconclusive [activator, partial curve, poor fit] | –
O=C(NCCc1csc2nc(-c3ccccc3F)nn12)c1ccco1 | – | inactive: -1.66%
COc1ccc(C2NC(=S)NC3=C2N2CCC3CC2)cc1 (centres undefined) | – | inactive: -7.84%
CN1C(C(=O)c2ccccc2)=C(OC(=O)c2ccc(Br)cc2)c2ccccc2S1(=O)=O | – | inactive: -7.47%
COc1ccc(C(=O)/C=C/c2ccc(OC3CSC3)cc2)cc1OC | – | inactive: 12.1%
CCOc1ccccc1NC(=O)c1ccc(Cl)c(NC(=O)CC(c2ccccc2)c2ccccc2)c1 | inconclusive [inhibitor, partial curve] | –
N=c1c2ccccc2nnn1-c1ccc(C(F)(F)F)cc1 | inconclusive [inhibitor, partial curve, poor fit] | –
COc1ccc(N(CC(=O)N/N=C/c2cccc3c2OCCO3)S(=O)(=O)c2ccc(NC(C)=O)cc2)cc1 | inconclusive [inhibitor, single point] | –
CCOc1ccc(-c2nnc(Nc3ccc(S(N)(=O)=O)cc3)c3ccccc23)cc1 | inconclusive [inhibitor, partial curve, poor fit] | –
C/C(=N\NC(=O)CNc1ccc(F)cc1)c1cc2ccccc2o1 | inconclusive [activator, partial curve] | –
Cc1cc(C)c(NC(=O)CSc2nc(=O)[nH]c3c2CCCC3)c(C)c1 | – | inactive: -10.3%
O=C(NCCc1ccccc1)c1cc(-c2ccc(Cl)cc2)on1 | – | inactive: -4.37%
